# Measurements taken from PubChem BioAssay AID504706 (National Center for Advancing Translational Sciences (NCATS), 2011).
# Out of some 320,000 compounds screened, about 200 (0.062%) were called active. This list was built around the results that the source calls inconclusive (neither active nor inactive); the mix of calls is not that of the screen. Calls come from the whole dose curve; as a rule, active = well fitted activation curve with a large enough effect; inconclusive = small, poorly fitted or top-dose-only effect; inactive = no such curve, though single readings can be large or run the other way. Potencies of inconclusive entries are left out as doubtful fits.
# Assay: qHTS assay for re-activators of p53 using a Luc reporter; note: nearly all actives have a fitted effect of over 45% in size
# Settings: H1299 p53-A138V BP100-luciferase reporter, luminescence, 24 h; series mostly up to 92.2 µM
# How it was run: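 H1299 (p53-null), stable ts p53-A138V + BP100-Luc; 1000 cells/well, Opti-MEM/10% FBS; cpd 4 pt, 1:5; 24 h, 37 deg C, 5% CO2; detection reagent 10 min RT; luminescence.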
# Potency is the fitted concentration of half-maximal effect; tags give direction and shape of the fitted curve.
row,SMILES,Potency
1,CCOc1ccc(NC(=O)Cn2ncc3ccccc32)cc1,"inconclusive [activator, partial curve, poor fit]"
2,Cc1ccc(C(=O)NCC(=O)OCCOc2ccccc2Cl)cc1,"inconclusive [activator, full curve, poor fit]"
3,CC(=O)c1cccc(NC(=S)NC(=O)c2ccc(Br)cc2)c1,"inconclusive [activator, full curve, poor fit]"
4,C(#Cc1ccc2c(c1)COc1c3ccccc3nn1-2)c1ccccc1,"inconclusive [activator, full curve, poor fit]"
5,Cc1ccccc1-c1nnc(CS(=O)(=O)c2ccccc2)o1,"inconclusive [activator, full curve, poor fit]"
6,CC1=CC(c2ccccc2)NC(=S)N1 (stereo not drawn),inactive
7,Cc1ccccc1-c1nnc(Cc2ccccc2)o1,"inconclusive [activator, partial curve, poor fit]"
8,OCc1nc2ccccc2n1CCCOc1ccccc1,"inconclusive [activator, partial curve, poor fit]"
9,COc1ccc(-c2cc([C@H]3[C@H]4C=CC[C@@H](C)[C@@H]4C(=O)N3Cc3ccccc3)ccc2F)cc1OC,inactive
10,CCOC(=O)c1sc(NC(=O)Nc2cccc(Cl)c2)cc1C,"inconclusive [activator, partial curve, poor fit]"
11,COc1cccc(C(=O)Nc2ccc(F)cc2F)c1,"inconclusive [activator, partial curve, poor fit]"
12,COC(=O)Cn1c(=NC(=O)c2cccc(OC)c2)sc2cc(OC)ccc21,inactive
13,O=C(NC(C(=O)N/N=C/c1ccccc1)c1n[nH]c(=O)c2ccccc12)c1ccccc1 (stereo not drawn),inactive
14,CCCCc1ccc(NC(=O)CSc2nc(=O)n(CCN(CC)CC)c3c2CCC3)cc1,"inconclusive [activator, single point]"
15,O=C1C2C3c4ccccc4C(c4ccccc43)C2C(=O)N1c1nc(-c2ccccc2)cs1 (stereo not drawn),inactive
16,Cc1ccc(/C=C/C(=O)N2CCc3ccccc32)o1,"inconclusive [activator, partial curve, poor fit]"
17,CCCc1c(C)nc(N2CCN(c3cccc(OC)c3)CC2)[nH]c1=O,"inconclusive [activator, partial curve, poor fit]"
18,CCNC(=S)N1CCN(c2cccc(C(F)(F)F)c2)CC1,inactive
19,COc1ccc(C(=O)NC2=NCCS2)cc1S(=O)(=O)N1CCCCC1C (stereo not drawn),inactive
20,O=C(NCc1ccco1)c1cc2ccc(O)cc2oc1=O,inactive
21,Cc1ccc(C(=O)COC(=O)c2cccc([N+](=O)[O-])c2)s1,"inconclusive [activator, full curve, poor fit]"
22,CC(=O)Nc1ccc(NC(=O)CSc2nnc(C)n2-c2ccccc2)cc1,"inconclusive [activator, single point]"
23,Cc1onc(-c2ccccc2Cl)c1-c1nc(-c2ccccn2)no1,inactive
24,Cc1[nH]n(C(N)=S)c(=O)c1N=Nc1ccc2ccccc2c1,inactive
25,CC1CCCN(S(=O)(=O)c2cccc([N+](=O)[O-])c2)C1 (stereo not drawn),"inconclusive [activator, partial curve, poor fit]"

row,SMILES,Potency
1,O=C(CC1SC(=NCCc2ccccc2)N(/N=C/c2cccs2)C1=O)Nc1ccc(Cl)cc1 (stereo not drawn),"inconclusive [activator, single point]"
2,COc1ccc(C(=O)c2ccsc2N)cc1,inactive
3,O=C(O)c1c(Cl)c(Cl)c(Cl)c(Cl)c1C(=O)N1CCCCCC1,inactive
4,CC(C)C(C(=O)NC1=NCCS1)c1ccc(Cl)cc1 (stereo not drawn),inactive
5,Cc1ccsc1C(=O)N/N=C/c1ccc2c(c1)OCO2,"inconclusive [activator, partial curve, poor fit]"
6,C=C1CCN(CC(=O)OC)S(=O)(=O)c2ccccc21,inactive
7,O=C(N/N=C/c1ccc(N2CCOCC2)o1)c1cccc([N+](=O)[O-])c1,inactive
8,O=C(Nc1ccccc1)NN(C(=O)CCl)c1ccccc1,inactive
9,CCOC(=O)/C=C/C(=O)Nc1nccs1,"inconclusive [activator, single point]"
10,COc1ccc(N(C)C(=O)Nc2ccc3nsnc3c2)cc1,inactive
11,Cc1nc(C(=O)Nc2ccccc2)sc1C(=O)Nc1ccccc1,"inconclusive [activator, partial curve, poor fit]"
12,N/C(=N\OC(=O)Cc1cccc2ccccc12)c1ccccn1,inactive
13,Cc1cc(N2CCN(C)CC2)nc2ccc(NC(=O)CCC(=O)N3CCN(c4ccc([N+](=O)[O-])cc4)CC3)cc12,inactive
14,c1ccc(COc2ccc3nocc3c2)cc1,"inconclusive [activator, full curve, poor fit]"
15,Cc1ccc(/C(O)=C2\C(=O)C(=O)N(CC(C)O)C2c2cccc(F)c2)cc1 (stereo not drawn),inactive
16,Cc1onc(-c2ccccc2)c1C(=O)c1c[nH]c(C(=O)NCc2ccccn2)c1,inactive
17,O=C1C2C3C=CC(CNS(=O)(=O)c4ccccc4[N+](=O)[O-])(O3)C2C(=O)N1c1ccccc1 (stereo not drawn),inactive
18,COc1ccc(S(=O)(=O)NCc2ccccn2)cc1Cl,"inconclusive [activator, single point]"
19,OC(CNc1ncnc2sccc12)c1ccccc1 (stereo not drawn),"inconclusive [activator, full curve, poor fit]"
20,Cc1cccc2c(N=NC(=O)c3ccc(NS(=O)(=O)c4cccs4)cc3)c(O)[nH]c12,"inconclusive [activator, partial curve, poor fit]"
21,COc1ccc(CC(=O)NCc2ccc3c(c2)cc(C)n3C)cc1,inactive
22,Cc1ccc(C(=O)N/N=C\c2ccc([N+](=O)[O-])o2)cn1,inactive
23,CCOC(=O)c1ccc(NC(=O)c2nc[nH]c2C(=O)N[C@@H](CC(C)C)C(=O)OC(C)(C)C)cc1,inactive
24,CCCNCc1nnc(-c2ccccc2Cl)o1,"inconclusive [activator, partial curve, poor fit]"
25,c1ccc(CN2C3=NCCN3c3ccccc32)cc1,inactive

row,SMILES,Potency
1,CCOC(=O)c1cc2sccc2n1Cc1ccccc1,inactive
2,O=C(NC(=S)NCCc1ccccc1)c1ccccc1F,"inconclusive [activator, partial curve, poor fit]"
3,COCCN1CCN(C(=O)c2cc(COc3cc(C)ccc3C)on2)CC1,"inconclusive [activator, partial curve, poor fit]"
4,Cc1ccc(-c2csc(NC(=O)CSC3=NCCS3)n2)cc1,"inconclusive [activator, partial curve, poor fit]"
5,O=C(CNC(=O)c1cccc(F)c1)OCC(=O)N1CCCCC1,"inconclusive [activator, partial curve, poor fit]"
6,Cc1cc(/C=C(\C#N)C(=O)NCc2cccs2)c(C)n1-c1ccccc1F,"inconclusive [activator, partial curve, poor fit]"
7,COc1cc(CN2CCC(C(N)=O)CC2)ccc1OCc1ccccc1,"inconclusive [activator, full curve, poor fit]"
8,Cc1[nH]n(-c2ccc(Cl)cc2)c(=O)c1C=Nc1ccc(S(=O)(=O)N2CCOCC2)cc1,"inconclusive [activator, single point]"
9,Cc1cccc(NC(=O)CSc2nnc(-c3ccccc3C)o2)c1,"inconclusive [activator, full curve, poor fit]"
10,Nc1ccccc1C(=O)N/N=C1\C2CN3CCN(C2)CC1(c1ccccc1)C3,"inconclusive [activator, partial curve, poor fit]"
11,O=C1c2ccccc2S(=O)(=O)N1CCOc1ccccc1,"inconclusive [activator, partial curve, poor fit]"
12,COc1cc(NC(=O)CN2CCC(C)CC2)c(C)cc1[N+](=O)[O-],"inconclusive [activator, partial curve, poor fit]"
13,CCOc1ccccc1NC(=O)C(OC(=O)c1ccc(CC)cc1)c1ccccc1 (stereo not drawn),inactive
14,C=CCSc1cc(C)nc2c(-c3ccccc3)cnn12,"inconclusive [activator, partial curve, poor fit]"
15,Cc1ccccc1NC(=O)c1ccc2c(c1)OCCO2,"inconclusive [activator, partial curve, poor fit]"
16,CC(=O)/C(C#N)=C1\NC(=O)C(Cc2ccc(C)c(C)c2)S1 (stereo not drawn),"inconclusive [activator, partial curve, poor fit]"
17,CN1CCS/C1=C\C=C1/SC(=S)N(CC(=O)O)C1=O,inactive
18,CCOC(=O)N1CCN(C(=S)NC(=O)c2cccc(OC)c2)CC1,inactive
19,O=C(Nc1ncccc1O)c1ccc(OCC2CCCO2)cc1 (stereo not drawn),"inconclusive [activator, partial curve, poor fit]"
20,Cn1c(NCc2ccccc2O)nc2ccccc21,"inconclusive [activator, partial curve, poor fit]"
21,CC(=O)c1cccc(OCC(O)CNCC2COc3ccccc3O2)c1 (stereo not drawn),"inconclusive [activator, full curve, poor fit]"
22,O=c1[nH]c(=S)[nH]c2sccc12,inactive
23,Cc1csc(NC(=O)/C=C/c2ccco2)n1,"inconclusive [activator, full curve, poor fit]"
